# In all, about 410,000 compounds went through this assay and about 530 (0.13%) were called active. Inconclusive results, whose numbers are uncertain, are shown with a selection of clear calls. Calls follow the shape of the dose curve; as a rule, active = well fitted inhibition curve with a large enough effect; inconclusive = small, poorly fitted or top-dose-only effect, or another doubt; inactive = no such curve, though single readings can be large or run the other way. A potency beside an inconclusive call is a rough fit, not a confirmed value.
# Assay: qHTS of GLP-1 Receptor Inverse Agonists: Cytotox Screen
# Settings: HEK293 cAMP-luciferase reporter cells, luminescence, 24 h; activity change, negative = inhibition: at 38.3 µM (top of the series) unless noted
# How it was run: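 MLSMR compounds, 24 hr on cells at 37 deg C/5% CO2; luminescence after luciferase reagent (12 min RT). Inhibition counted as the undesired cytotoxic outcome.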
# % is scaled to controls: 0 for no effect and ±100 for the full control effect; potency is read from the fitted curve at half-maximal effect.
Compound,Potency,"activity change, negative = inhibition"
O=C(N/N=C/c1cccs1)c1cc(C2CC2)nc2ccccc12,"inconclusive: 12.6 µM [inhibitor, single point]",–
CCC(C)N(CC(=O)Nc1cccc(C)c1C)C(=O)CCl (centres undefined),"inconclusive: 8.91 µM [inhibitor, partial curve, poor fit]",–
CCC1CCCCN1CCCNC(=O)c1ccc2c(c1)N(Cc1cccc(C)c1)C(=O)c1ccccc1S2(=O)=O (centres undefined),–,inactive: -3.88%
C=C(C)COc1ccc(-c2n[nH]c(C)c2-c2ccc(OC)cc2)c(O)c1,"inconclusive: 15.8 µM [inhibitor, single point]",–
CC1CN(C(=O)Nc2ccc3c(c2)OCCO3)CC(C)O1 (centres undefined),–,inactive: 0.794%
CC(C)NC(=O)N1Cc2cc(C(=O)NC3CCCCC3)nc(-c3cccc(-c4cccnc4)c3)c2[C@@H]1CCO,–,inactive: 5.1%
Cc1cccc(C)c1NC(=O)CSCC(=O)c1ccc(O)c(O)c1,"inconclusive: 8.91 µM [inhibitor, single point]",–
CCOc1cc([N+](=O)[O-])cc(/C=N/NC(=O)c2c(-c3ccccc3)noc2C)c1O,"inconclusive: 3.55 µM [inhibitor, full curve]",–
Cc1ccc(N=C2SC(C(=O)Nc3ccc(OC(F)(F)F)cc3)C(N)=C2C(=O)Nc2c(C)cc(C)cc2C)cc1 (centres undefined),"inconclusive: 28.2 µM [inhibitor, single point]",–
Cc1ccc(NC(=O)COc2ccccc2C=O)cc1Cl,"inconclusive: 28.2 µM [inhibitor, single point]",–
CC1=NN(c2ccccc2)C(=O)/C1=C/c1ccc[nH]1,"inconclusive: 31.6 µM [inhibitor, partial curve, poor fit]",–
CC(=NNC(=O)c1ccncc1)c1ccccc1O,"inconclusive: 0.501 µM [inhibitor, full curve, poor fit]",–
COc1ccccc1NC(=S)N(Cc1ccco1)Cc1cc2cc(C)c(C)cc2[nH]c1=O,"inconclusive: 0.631 µM [inhibitor, full curve, poor fit]",–
COc1ccc2oc(C(=O)N(C)CCOc3ccccc3)c(C)c2c1,–,inactive: 14.5%
O=C(CSc1ccccn1)c1ccc2c(c1)OCO2,–,inactive: 1.6%
Cc1cc(NC(=O)CCN2CCC(C(N)=O)CC2)ccc1Br,–,inactive: 24%
Cc1oc2c(cc(NS(=O)(=O)c3cccs3)c3ccccc32)c1C(=O)OC(C)C,"inconclusive: 28.2 µM [inhibitor, single point]",–
CCOC(=O)C(=Cc1ccc(Br)cc1)C(=O)OCC,"inconclusive: 11.2 µM [inhibitor, partial curve]",–
CCOc1ccc(N(CC(=O)N/N=C/c2ccccn2)S(=O)(=O)c2ccc(Cl)cc2)cc1,"inconclusive: 28.2 µM [inhibitor, single point]",–
Cc1cc(OC(C)C(=O)N(Cc2ccco2)Cc2ccco2)cc(C)c1Cl (centres undefined),–,inactive: 0.619%
Cc1cc(Cl)ccc1NNC(=O)c1c(C)noc1C,"inconclusive: 28.2 µM [inhibitor, single point]",–
O=[N+]([O-])/C(C(=C(Cl)Cl)N1CCN(Cc2ccccc2)CC1)=C1\NCCN1Cc1ccc(Cl)nc1,"inconclusive: 15.8 µM [inhibitor, partial curve, poor fit]",–
O=C(Nc1ccc(Cl)cc1Cl)c1csc(-c2cccnc2)n1,–,inactive: 4.35%

Compound,Potency,"activity change, negative = inhibition"
O=C(Cn1ncc(Cl)c(Cl)c1=O)N1CCN(Cc2ccccc2)CC1,"inconclusive: 11.2 µM [inhibitor, single point]",–
O=C1CSC(c2cn(-c3ccccc3)nc2-c2cc3ccccc3oc2=O)N1Cc1cccnc1 (centres undefined),"inconclusive: 31.6 µM [inhibitor, single point]",–
COC(=O)C1=C(C)N(Cc2ccccc2)C(=S)N[C@H]1c1cccc(C(F)(F)F)c1,"inconclusive: 10 µM [inhibitor, partial curve, poor fit]",–
Clc1cccc(Cl)c1C1Nc2cccc3cccc(c23)N1,"inconclusive: 0.562 µM [inhibitor, full curve, poor fit]",–
CC1(C)NC(=O)N(CC(O)CN2C(=O)NC(C)(C)C2=O)C1=O,–,inactive: -11.4%
COc1cc(NC(=O)C2CCN(S(=O)(=O)c3ccc(Cl)cc3)CC2)ccc1-n1cnnn1,"inconclusive: 2.51 µM [inhibitor, full curve, poor fit]",–
O=C(O)c1ccccc1SC1CC(=O)N(c2ccc3c(c2)OCO3)C1=O (centres undefined),–,inactive: 1.92%
O=[N+]([O-])c1c(NCCCO)cc(Sc2nc3ccccc3s2)c2nonc12,"inconclusive: 28.2 µM [inhibitor, single point]",–
CCc1ccccc1N1C(=O)N(Cc2cc(=O)n3ccccc3n2)c2ccccc2S1(=O)=O,–,inactive: -10.3%
CCCc1noc2c1C(c1ccoc1)C(C#N)=C(N)N2 (centres undefined),"inconclusive: 12.6 µM [inhibitor, single point]",–
Cc1ccc(/C(O)=C2\C(=O)C(=O)N(Cc3cccnc3)C2c2ccccc2[N+](=O)[O-])cc1 (centres undefined),"inconclusive: 5.62 µM [inhibitor, partial curve, poor fit]",–
C[C@H](CO)N1C[C@H](C)[C@@H](CN(C)C(=O)NC2CCCCC2)Oc2ccc(NS(C)(=O)=O)cc2C1=O,"inconclusive: 3.98 µM [inhibitor, full curve, poor fit]",–
CC(C)Cc1nc(S(=O)(=O)c2ccc(Cl)cc2)c(N2CCOCC2)o1,–,inactive: 0.371%
CNC(=S)Nc1cccc(-c2cnc3ccccc3n2)c1,"inconclusive: 10 µM [inhibitor, single point]",–
Cc1ccc(C)c(NC(=S)NCC(c2ccccc2)N(C)C)c1 (centres undefined),"inconclusive: 14.1 µM [inhibitor, single point]",–
CN1CCC/C1=C/C=C1\SC(=S)NC1=O,"inconclusive: 1.78 µM [inhibitor, full curve]",–
C=CCNC(=S)N/N=C/c1ccc(C)c([N+](=O)[O-])c1,active: 7.94 µM,–
CCc1cnc(Nc2nc(C(N)Cc3ccc(F)cc3)cs2)nc1 (centres undefined),"inconclusive: 10 µM [inhibitor, partial curve]",–
O=c1[nH]c2cc([N+](=O)[O-])c(NCCO)c([N+](=O)[O-])c2[nH]1,"inconclusive: 11.2 µM [inhibitor, partial curve, poor fit]",–
Cc1ccccc1NC(=O)CCC(=O)OCC(=O)c1ccc(-c2ccccc2)cc1,–,inactive: 13%
COC(=O)c1cc2n(n1)CCN(Cc1ccccc1Cl)C2=O,–,inactive: -1.25%
COc1cc(C(=O)Nc2ccc(Oc3ncnc4sc(-c5ccccc5)cc34)cc2)cc(OC)c1OC,–,inactive: -0.302%
COc1cccc(/C=N/Nc2nccnc2Cl)c1O,"inconclusive: 0.794 µM [inhibitor, full curve]",–

Compound,Potency,"activity change, negative = inhibition"
COc1ccc2[nH]c(=O)cc(C(=O)O)c2c1,–,inactive: 10.8%
COc1ccc(-c2[nH]ncc2Oc2ccccc2OC)c(O)c1,"inconclusive: 3.55 µM [inhibitor, partial curve, poor fit]",–
Cc1ccc(-n2c(=O)c3c4c(sc3n3c(=S)[nH]nc23)CCC4)cc1,–,inactive: -1.96%
Cc1ccc(C(=O)N/C(=C\C=C\c2ccccc2)C(=O)NCc2ccco2)cc1,"inconclusive: 28.2 µM [inhibitor, single point]",–
Cc1cnc(C=NNC(N)=S)c2cccc(N)c12,"inconclusive: 25.1 µM [inhibitor, partial curve, poor fit]",–
CCn1c(=O)c2sccc2n2c(CCCC(=O)Nc3ccc(Oc4ccccc4)cc3)nnc12,–,inactive: -15.7%
Cc1ccc(S(=O)(=O)NNC(=O)Nc2ccc(C)c(C)c2)c(C)c1,–,inactive: -5.64%
NNc1ncnc2sc3c(c12)CCC3,"inconclusive: 28.2 µM [inhibitor, single point]",–
CCOC(=O)C1CCN(c2nc3ccccc3nc2C(C#N)C(=O)OC(C)C)CC1 (centres undefined),–,inactive: 7.88%
CNCCC=C1c2ccccc2C=Cc2ccccc21,–,inactive: 6.31%
CCCCOC(=O)c1ccc(NC(=S)NC(=O)c2c(Cl)cnn2C)cc1,"inconclusive: 15.8 µM [inhibitor, single point]",–
O=C(N/N=C/C(Br)=C/c1ccccc1)c1cnccn1,"inconclusive: 10 µM [inhibitor, single point]",–
COc1cc(OC)cc(C(=O)NC(=S)Nc2cccnc2)c1,–,inactive: 7.56%
CC1CC(C)CN(C(=O)COC(=O)c2ccc3c(c2)OCCO3)C1 (centres undefined),"inconclusive: 28.2 µM [inhibitor, single point]",–
CCn1c2ccccc2c2cc(CNCc3ccc(OC)cc3OC)ccc21,"inconclusive: 28.2 µM [inhibitor, single point]",–
Cc1cccc(NC(=O)Cn2c(O)c(N=NC(N)=S)c3ccccc32)c1,"inconclusive: 7.08 µM [inhibitor, partial curve, poor fit]",–
Fc1ccc(-[n+]2nc(Nc3ccccc3)sc2-c2ccc(OCc3ccccc3)cc2)cc1,"inconclusive: 0.562 µM [inhibitor, full curve, poor fit]",–
Cc1ccccc1NC(=S)NC(=O)C1CCCCC1,"inconclusive: 28.2 µM [inhibitor, single point]",–
CCCCS/C(=C(/C#N)C(N)=O)c1cc2c([nH]1)CCCC2,"inconclusive: 28.2 µM [inhibitor, single point]",–
CCCNC(=O)C1(C)CCCN(Cc2ccc3c(c2)OCO3)C1 (centres undefined),–,inactive: -7.3%
NNc1nnc2c3cc(F)ccc3n(Cc3ccccc3)c2n1,"inconclusive: 28.2 µM [inhibitor, single point]",–
CCCCCCCCC(NC(=O)c1ccc(C#N)cc1)C(=O)NCCC (centres undefined),"inconclusive: 28.2 µM [inhibitor, single point]",–
Cc1cc(Oc2ccc(=O)n(C)n2)nc(SCCOc2ccccc2)n1,"inconclusive: 12.6 µM [inhibitor, single point]",–
